Laboratory results reported in the supplement of paper PMC8728848.
Some of the results follow.

Legend:
Experiment in all cases: glycan array binding signal (z-score within array); higher = stronger binding
Conditions in all cases: glycan notation: IUPAC condensed, linker removed
[1] = target: Neu5Ac(a2-8)Neu5Ac
In short: (§1)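 From the Consortium for Functional Glycomics database, 3228 arrays were curated, keeping only those whose protein sequence was available. Binding is given as a within-array Z-score averaged across arrays sharing a protein sequence and across linkers. Negative Z-scores can be read as non-binding.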

[2] = target: Neu5Ac(a2-8)Neu5Ac(a2-3)Gal(b1-3)GalNAc(b1-4)[Neu5Ac(a2-3)]Gal(b1-4)Glc
In short: as §1

[3] = target: Neu5Ac(a2-8)Neu5Ac(a2-3)Gal(b1-3)GalNAc(b1-4)[Neu5Ac(a2-8)Neu5Ac(a2-3)]Gal(b1-4)Glc
In short: as §1

[4] = target: Neu5Ac(a2-8)Neu5Ac(a2-3)Gal(b1-4)Glc
In short: as §1

[5] = target: Neu5Ac(a2-8)Neu5Ac(a2-3)Gal(b1-4)GlcNAc
In short: as §1

[6] = target: Neu5Ac(a2-8)Neu5Ac(a2-3)[Gal(b1-3)GalNAc(b1-4)]Gal(b1-4)Glc
In short: as §1

[7] = target: Neu5Ac(a2-8)Neu5Ac(a2-3)[GalNAc(b1-4)]Gal(b1-4)Glc
In short: as §1

[8] = target: Neu5Ac(a2-8)Neu5Ac(a2-8)Neu5Ac
In short: as §1

[9] = target: Neu5Ac(a2-8)Neu5Ac(a2-8)Neu5Ac(a2-3)Gal(b1-4)Glc
In short: as §1

[10] = target: Neu5Ac(a2-8)Neu5Ac(a2-8)Neu5Ac(a2-3)[Gal(b1-3)GalNAc(b1-4)]Gal(b1-4)Glc
In short: as §1

[11] = target: Neu5Ac(a2-8)Neu5Ac(a2-8)Neu5Ac(a2-3)[GalNAc(b1-4)]Gal(b1-4)Glc
In short: as §1

[12] = target: Neu5Ac(a2-8)Neu5Ac(a2-8)Neu5Ac(a2-8)Neu5Ac(a2-3)[GalNAc(b1-4)]Gal(b1-4)Glc
In short: as §1

[13] = target: Neu5Ac(a2-8)Neu5Gc(a2-3)Gal(b1-4)GlcNAc
In short: as §1

[14] = target: Neu5Ac(b2-6)Gal(b1-4)GlcNAc
In short: as §1

[15] = target: Neu5Ac(b2-6)GalNAc
In short: as §1

[16] = target: Neu5Ac9Ac(a2-3)Gal(b1-3)GlcNAc
In short: as §1

[17] = target: Neu5Ac9Ac(a2-3)Gal(b1-4)GlcNAc
In short: as §1

[18] = target: Neu5Ac9Ac(a2-6)Gal(b1-4)GlcNAc
In short: as §1

[19] = target: Neu5Gc(a2-3)Gal(b1-3)GlcNAc
In short: as §1

[20] = target: Neu5Gc(a2-3)Gal(b1-3)[Fuc(a1-4)]GlcNAc
In short: as §1

[21] = target: Neu5Gc(a2-3)Gal(b1-4)Glc
In short: as §1

[22] = target: Neu5Gc(a2-3)Gal(b1-4)GlcNAc
In short: as §1

[23] = target: Neu5Gc(a2-3)Gal(b1-4)GlcNAc(b1-3)Gal(b1-4)GlcNAc(b1-2)Man(a1-3)[Neu5Gc(a2-3)Gal(b1-4)GlcNAc(b1-3)Gal(b1-4)GlcNAc(b1-2)Man(a1-6)]Man(b1-4)GlcNAc(b1-4)GlcNAc
In short: as §1

[24] = target: Neu5Gc(a2-3)Gal(b1-4)[Fuc(a1-3)]GlcNAc
In short: as §1

[25] = target: Neu5Gc(a2-6)Gal(b1-4)GlcNAc
In short: as §1

[26] = target: Neu5Gc(a2-6)GalNAc
In short: as §1

[27] = target: Neu5Gc(a2-8)Neu5Ac(a2-3)Gal(b1-4)GlcNAc
In short: as §1

[28] = target: Neu5Gc(a2-8)Neu5Gc(a2-3)Gal(b1-4)GlcNAc
In short: as §1

[29] = target: Neu5Gc(a2-8)Neu5Gc(a2-3)Gal(b1-4)GlcNAc(b1-3)Gal(b1-4)GlcNAc
In short: as §1

[30] = target: Neu5Gc(a2-8)Neu5Gc(a2-6)Gal(b1-4)GlcNAc
In short: as §1

[31] = target: Neu5Gc(b2-6)Gal(b1-4)GlcNAc
In short: as §1

B1: Epa3to1 (Candida glabrata) (protein)
chain: MGSSHHHHHHSSGLVPRGSHMKRELSSQNPFGYPIGCSPQDVAIIPGLTMELYSYPIVSGTPPNCYDASYVDPEYPRTGYLKRKMVGKSTGVTGNLNYKYSVEKACMVKYGNLPAGYNYNEPLTVSNFTMILYGYFKAQTTGLHTFFVNADDLLYINFGAGNAFDCCKREDSKTKLGEYVAYDIWHVDSSKNKVSLFLEKDLYYPIRMFFNNREYDSSLDLSFSVNGATDQISDFSGYLYSVPDQPDTCPAHIGYDTTCR
- glycan array binding signal (z-score) [1]: -0.243
- glycan array binding signal (z-score) [2]: 0.246
- glycan array binding signal (z-score) [3]: -0.377
- glycan array binding signal (z-score) [4]: -0.596
- glycan array binding signal (z-score) [5]: -0.418
- glycan array binding signal (z-score) [6]: -0.126
- glycan array binding signal (z-score) [7]: 1.5
- glycan array binding signal (z-score) [8]: -0.101
- glycan array binding signal (z-score) [9]: 0.154
- glycan array binding signal (z-score) [10]: -0.599
- glycan array binding signal (z-score) [11]: 0.817
- glycan array binding signal (z-score) [12]: 0.388
- glycan array binding signal (z-score) [13]: -0.798
- glycan array binding signal (z-score) [14]: -0.832
- glycan array binding signal (z-score) [15]: -0.426
- glycan array binding signal (z-score) [16]: -0.225
- glycan array binding signal (z-score) [17]: -0.428
- glycan array binding signal (z-score) [18]: 0.523
- glycan array binding signal (z-score) [19]: -0.346
- glycan array binding signal (z-score) [20]: -0.353
- glycan array binding signal (z-score) [21]: 0.281
- glycan array binding signal (z-score) [22]: -0.293
- glycan array binding signal (z-score) [23]: -0.254
- glycan array binding signal (z-score) [24]: -1.38
- glycan array binding signal (z-score) [25]: 1.61
- glycan array binding signal (z-score) [26]: -0.399
- glycan array binding signal (z-score) [27]: -0.818
- glycan array binding signal (z-score) [28]: -0.541
- glycan array binding signal (z-score) [29]: 0.126
- glycan array binding signal (z-score) [30]: -0.59
- glycan array binding signal (z-score) [31]: 0.023
